# Measured values taken from the supplement of paper PMC8728848.
# The list shows a part of the results.
# B1: CCL1 (Coprinopsis cinerea) (protein)
# chain: MDTQAKPPAGRYVIYNRVLSPNGEKLALTYPGYQREALTLTPLHHSANQIWILNNWDATTSSLTPETARNTQVGWGSGNVPIVLPPGNYVWTLASSAGGYIIQDGGKTVYWNAGEAVANTKVSIGGDNGLQARWIFERV
# Columns and labels:
# Experiment in all cases: glycan array binding signal (z-score within array); higher = stronger binding
# Conditions in all cases: glycan notation: IUPAC condensed, linker removed
# [1] = target: Neu5Ac(a2-3)Gal(b1-4)GlcNAc(b1-3)Gal(b1-4)[Fuc(a1-3)]GlcNAc
# Procedure, shortened: (§1)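 Columns mapping to the same glycan were averaged after glycan names were converted to IUPAC-condensed notation. The data come from 3228 arrays in the Consortium for Functional Glycomics database, limited to those with an available protein sequence. Binding is reported as a within-array Z-score averaged across arrays of one protein sequence and across linkers.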
# [2] = target: Neu5Ac(a2-3)Gal(b1-4)GlcNAc(b1-3)GalNAc
# Procedure, shortened: as §1
# [3] = target: Neu5Ac(a2-3)Gal(b1-4)GlcNAc(b1-3)[Neu5Ac(a2-3)Gal(b1-4)GlcNAc(b1-6)]GalNAc
# Procedure, shortened: as §1
# [4] = target: Neu5Ac(a2-3)Gal(b1-4)GlcNAc(b1-6)GalNAc
# Procedure, shortened: as §1
# [5] = target: Neu5Ac(a2-3)Gal(b1-4)GlcNAc(b1-6)[Gal(b1-3)]GalNAc
# Procedure, shortened: as §1
# [6] = target: Neu5Ac(a2-3)Gal(b1-4)GlcNAc(b1-6)[Neu5Ac(a2-3)Gal(b1-3)]GalNAc
# Procedure, shortened: as §1
# [7] = target: Neu5Ac(a2-3)Gal(b1-4)GlcNAc6S
# Procedure, shortened: as §1
# [8] = target: Neu5Ac(a2-3)Gal(b1-4)[Fuc(a1-3)]GlcNAc
# Procedure, shortened: as §1
# [9] = target: Neu5Ac(a2-3)Gal(b1-4)[Fuc(a1-3)]GlcNAc(b1-3)Gal
# Procedure, shortened: as §1
# [10] = target: Neu5Ac(a2-3)Gal(b1-4)[Fuc(a1-3)]GlcNAc(b1-3)Gal(b1-4)GlcNAc
# Procedure, shortened: as §1
# [11] = target: Neu5Ac(a2-3)Gal(b1-4)[Fuc(a1-3)]GlcNAc(b1-3)Gal(b1-4)[Fuc(a1-3)]GlcNAc(b1-3)Gal(b1-4)[Fuc(a1-3)]GlcNAc
# Procedure, shortened: as §1
# [12] = target: Neu5Ac(a2-3)Gal(b1-4)[Fuc(a1-3)]GlcNAc(b1-3)GalNAc
# Procedure, shortened: as §1
# [13] = target: Neu5Ac(a2-3)Gal(b1-4)[Fuc(a1-3)]GlcNAc(b1-6)[Gal(b1-3)]GalNAc
# Procedure, shortened: as §1
# [14] = target: Neu5Ac(a2-3)Gal(b1-4)[Fuc(a1-3)]GlcNAc6S
# Procedure, shortened: as §1
# [15] = target: Neu5Ac(a2-3)Gal6S(b1-4)GlcNAc
# Procedure, shortened: as §1
# [16] = target: Neu5Ac(a2-3)Gal6S(b1-4)[Fuc(a1-3)]GlcNAc
# Procedure, shortened: as §1
# Neu5Ac(a2-3)GalNAc = target: Neu5Ac(a2-3)GalNAc
# Procedure, shortened: as §1
# [17] = target: Neu5Ac(a2-3)GalNAc(b1-4)GlcNAc
# Procedure, shortened: as §1
# [18] = target: Neu5Ac(a2-3)[GalNAc(b1-4)]Gal(b1-4)Glc
# Procedure, shortened: as §1
# [19] = target: Neu5Ac(a2-3)[GalNAc(b1-4)]Gal(b1-4)GlcNAc
# Procedure, shortened: as §1
# [20] = target: Neu5Ac(a2-3)[GalNAc(b1-4)]Gal(b1-4)GlcNAc(b1-3)GalNAc
# Procedure, shortened: as §1
# [21] = target: Neu5Ac(a2-3)[Neu5Ac(a2-6)]GalNAc
# Procedure, shortened: as §1
# Neu5Ac(a2-6)Gal = target: Neu5Ac(a2-6)Gal
# Procedure, shortened: as §1
# [22] = target: Neu5Ac(a2-6)Gal(b1-3)GlcNAc(b1-3)[Gal(b1-4)GlcNAc(b1-6)]Gal(b1-4)Glc
# Procedure, shortened: as §1
# Neu5Ac(a2-6)Gal(b1-4)Glc = target: Neu5Ac(a2-6)Gal(b1-4)Glc
# Procedure, shortened: as §1
# [23] = target: Neu5Ac(a2-6)Gal(b1-4)GlcNAc
# Procedure, shortened: as §1
# [24] = target: Neu5Ac(a2-6)Gal(b1-4)GlcNAc(b1-2)Man(a1-3)Man(b1-4)GlcNAc(b1-4)GlcNAc
# Procedure, shortened: as §1
# [25] = target: Neu5Ac(a2-6)Gal(b1-4)GlcNAc(b1-2)Man(a1-3)[Gal(b1-4)GlcNAc(b1-2)Man(a1-6)]Man(b1-4)GlcNAc(b1-4)GlcNAc
# Procedure, shortened: as §1
# [26] = target: Neu5Ac(a2-6)Gal(b1-4)GlcNAc(b1-2)Man(a1-3)[GlcNAc(b1-2)Man(a1-6)]Man(b1-4)GlcNAc(b1-4)GlcNAc
# Procedure, shortened: as §1
# [27] = target: Neu5Ac(a2-6)Gal(b1-4)GlcNAc(b1-2)Man(a1-3)[GlcNAc(b1-2)Man(b1-4)GlcNAc(b1-2)Man(a1-6)]Man(b1-4)GlcNAc(b1-4)GlcNAc
# Procedure, shortened: as §1
# [28] = target: Neu5Ac(a2-6)Gal(b1-4)GlcNAc(b1-2)Man(a1-3)[Man(a1-6)]Man(b1-4)GlcNAc(b1-4)GlcNAc
# Procedure, shortened: as §1
# [29] = target: Neu5Ac(a2-6)Gal(b1-4)GlcNAc(b1-2)Man(a1-3)[Neu5Ac(a2-6)Gal(b1-4)GlcNAc(b1-2)Man(a1-6)]Man(b1-4)GlcNAc(b1-4)GlcNAc
# Procedure, shortened: as §1
# [30] = target: Neu5Ac(a2-6)Gal(b1-4)GlcNAc(b1-2)Man(a1-3)[Neu5Ac(a2-6)Gal(b1-4)GlcNAc(b1-2)Man(a1-6)]Man(b1-4)GlcNAc(b1-4)[Fuc(a1-6)]GlcNAc
# Procedure, shortened: as §1
# [31] = target: Neu5Ac(a2-6)Gal(b1-4)GlcNAc(b1-2)Man(a1-6)Man(b1-4)GlcNAc(b1-4)GlcNAc
# Procedure, shortened: as §1
# [32] = target: Neu5Ac(a2-6)Gal(b1-4)GlcNAc(b1-2)Man(a1-6)[Gal(b1-4)GlcNAc(b1-2)Man(a1-3)]Man(b1-4)GlcNAc(b1-4)GlcNAc
# Procedure, shortened: as §1
# [33] = target: Neu5Ac(a2-6)Gal(b1-4)GlcNAc(b1-2)Man(a1-6)[GlcNAc(b1-2)Man(a1-3)]Man(b1-4)GlcNAc(b1-4)GlcNAc
# Procedure, shortened: as §1
binder,measurement,setting,value
B1,glycan array binding signal (z-score),[1],-0.148
same,glycan array binding signal (z-score),[2],-0.146
same,glycan array binding signal (z-score),[3],-0.152
same,glycan array binding signal (z-score),[4],-0.176
same,glycan array binding signal (z-score),[5],-0.136
same,glycan array binding signal (z-score),[6],-0.122
same,glycan array binding signal (z-score),[7],-0.104
same,glycan array binding signal (z-score),[8],1.14
same,glycan array binding signal (z-score),[9],3.29
same,glycan array binding signal (z-score),[10],1.16
same,glycan array binding signal (z-score),[11],1.58
same,glycan array binding signal (z-score),[12],0.072
same,glycan array binding signal (z-score),[13],0.13
same,glycan array binding signal (z-score),[14],1.12
same,glycan array binding signal (z-score),[15],0.634
same,glycan array binding signal (z-score),[16],1.5
same,glycan array binding signal (z-score),Neu5Ac(a2-3)GalNAc,-0.174
same,glycan array binding signal (z-score),[17],-0.17
same,glycan array binding signal (z-score),[18],-0.154
same,glycan array binding signal (z-score),[19],-0.135
same,glycan array binding signal (z-score),[20],-0.079
same,glycan array binding signal (z-score),[21],-0.149
same,glycan array binding signal (z-score),Neu5Ac(a2-6)Gal,-0.15
same,glycan array binding signal (z-score),[22],-0.146
same,glycan array binding signal (z-score),Neu5Ac(a2-6)Gal(b1-4)Glc,-0.133
same,glycan array binding signal (z-score),[23],-0.124
same,glycan array binding signal (z-score),[24],-0.124
same,glycan array binding signal (z-score),[25],-0.138
same,glycan array binding signal (z-score),[26],-0.088
same,glycan array binding signal (z-score),[27],-0.137
same,glycan array binding signal (z-score),[28],-0.115
same,glycan array binding signal (z-score),[29],-0.124
same,glycan array binding signal (z-score),[30],-0.158
same,glycan array binding signal (z-score),[31],-0.132
same,glycan array binding signal (z-score),[32],-0.12
same,glycan array binding signal (z-score),[33],-0.149
